The term % Inhibition denotes the drop in the measured response relative to a control, in per cent.

SMILES strings stand for the structures. About 540 (0.36%) of roughly 150,000 compounds showed an effect of 50% or more. The list shows a part of the results.

Data on 42 compounds can be found in ChEMBL document CHEMBL4888484, “Replenishing the malaria drug discovery pipeline: Screening and hit evaluation of the MMV Hit Generation Library 1 (HGL1) against asexual blood stage Plasmodium falciparum ,using a nano luciferase reporter read-out” (2022).

In this test the test system is Plasmodium falciparum. Briefly: Primary screen in NF54 nanoGlo assay, in single point, at 2uM, 72h; a lower Z score goes with more inhibition. Type of test: functional, Erythrocyte. The settings on record: timepoint 72 hour.
For the compound `CC1CC(NC(=O)N2CCC(CC#N)CC2)CC(C)O1` (centres undefined), the “% Inhibition” value was found to be 3% and the Z score is on record as -0.47.

`CNC(=O)[C@@H]1CC[C@](C)(C(=O)NCCc2csc(C)c2C)C1(C)C`: the “% Inhibition” value is listed as -17% and the Z score was found to be 2.76.

For the compound `CCOC(=O)c1ncc(NC(=O)c2ccc(S(=O)(=O)N(C)OC)cc2)s1`, the “% Inhibition” value is listed as -4% and the Z score stood at 0.42.

Turning to `Cc1cnccc1C(=O)NC1(CO)CCCCCC1`, the “% Inhibition” value was -6% and the Z score is recorded as 0.98.

Regarding `CC[C@H](C)N(Cc1ccsc1)C(=O)CCC(=O)Nc1cccc(O)c1`, the “% Inhibition” value came out at 3% and the Z score is given as -0.47.

For the compound `Cc1cccnc1CN1C(C)CCCC1CO` (centres undefined), the “% Inhibition” value is on record as -14% and the Z score worked out at 1.28.

As for `COc1cc(OC)cc([C@@H](O)CNC(=O)Cn2cccnc2=O)c1`, the “% Inhibition” value is given as -10% and the Z score amounted to 1.69.

For the compound `CN(C)c1nc(N)cc(-c2ccc(C(=O)NCCCOC3CCCC3)cc2)n1`, the “% Inhibition” value was -3% and the Z score is on record as 0.4.

`Cc1ccccc1OCC(=O)NCc1nc(-c2cccn2C)no1`: the “% Inhibition” value is on record as -8% and the Z score was found to be 1.6.

`Cc1cc(NCc2cccnc2Oc2ccc(C)c(F)c2F)nc(N)n1`: the “% Inhibition” value came out at 1% and the Z score is reported as -0.17.

Regarding `O[C@H](COC1CCOCC1)Cn1c(-c2ccccn2)nc2ccc(Cl)cc21`, the “% Inhibition” value was -3% and the Z score turned out to be 0.36.

Turning to `Cc1nnc([C@H](C)N2CCn3c(n[nH]c3=O)C2)s1`, the “% Inhibition” value was -15% and the Z score came to 1.88.

Take `O=C1CN(CCCNC(=O)[C@]2(c3ccccc3)CC23CCCC3)CCN1`: the “% Inhibition” value stood at 0% and the Z score is reported as -0.06.

As for `CC(CC1CCCC1)C(=O)NCC1CCN(C)C(=O)C1` (centres undefined), the “% Inhibition” value was -13% and the Z score was found to be 1.37.

For `O=C1NC(=O)C2(CCN(C(=O)C3CC3c3ccccc3)CC2)N1` (centres undefined), the “% Inhibition” value is -5% and the Z score is 0.7.

For `CC[C@]1(O)CCN(C(=O)c2cnc(N3CCOCC3)nc2)C[C@@H]1O`, the “% Inhibition” value is -8% and the Z score was found to be 0.75.

As to `Cc1cc(C)cc(OC(=O)Cn2c(=O)sc3cccc(Cl)c32)c1`, the “% Inhibition” value is listed as 3% and the Z score is recorded as -0.45.

As to `CS(=O)(=O)N[C@@H]1CC[C@H]2CCOc3ccccc3C(=O)N3CCN(C4Cc5ccccc5C4)C[C@H]3C(=O)NC[C@H]1O2`, the “% Inhibition” value is 14% and the Z score is reported as -1.63.

Take `Cc1nnc([C@H]2OCC[C@H]2CNc2cnc3cc(Cl)ccc3n2)[nH]1`: the “% Inhibition” value is -1% and the Z score came to 0.2.

In the case of `Cc1cc(C(=O)N2CCn3c(n[nH]c3=O)[C@H]2c2ccccc2)c(C)o1`, the “% Inhibition” value is reported as -5% and the Z score worked out at 0.85.

Turning to `O=C(Cn1c2c(c(=O)n1-c1ccccc1)Cc1cc(Br)ccc1O2)NC1CCCC1`, the “% Inhibition” value is recorded as -8% and the Z score is on record as 0.81.

In the case of `O=C(N[C@H](C(=O)O)C1CCCCC1)c1ccc(-c2cc[nH]n2)s1`, the “% Inhibition” value is on record as -6% and the Z score turned out to be 1.05.

Consider `CO[C@H]1COCC[C@@H]1NC(=O)c1nc(=O)[nH]c2ccccc12`, for which the “% Inhibition” value is recorded as -4% and the Z score turned out to be 0.48.

Consider `COc1ccc(-c2noc(N(C)CC(=O)Nc3ccccc3OC)n2)cc1`, for which the “% Inhibition” value is on record as -8% and the Z score is 1.51.

Regarding `CC(C)n1nccc1NC(=O)N1CCCC[C@@H]1CCN(C)C`, the “% Inhibition” value is reported as 5% and the Z score is on record as -0.79.

On to `Cc1nc2ccnn2cc1C(=O)Nc1cccc2c1OC(C)(C)CC2`, for which the “% Inhibition” value is reported as -6% and the Z score was 1.23.

Regarding `COC(=O)c1ccc(S(=O)(=O)NC2(c3ccccc3)CCC2)cn1`, the “% Inhibition” value is listed as -10% and the Z score was found to be 0.94.

Regarding `COc1nc(NC[C@H]2CCCN2C(C)C)ncc1F`, the “% Inhibition” value was 64% and the Z score is -12.06.

With `Cc1nc(C(=O)Nc2ccc3c(c2)OCCO3)co1`, the “% Inhibition” value is on record as -11% and the Z score was found to be 1.88.

In the case of `Cc1noc(C)c1CC(=O)N[C@@](C)(CO)C1CCCCC1`, the “% Inhibition” value is -12% and the Z score was 1.26.

In the case of `CO[C@@]12CC[C@@H](OCC3CC3)C[C@@H]1N(C(=O)c1csc(C(C)C)n1)CC2`, the “% Inhibition” value was -2% and the Z score was determined as 0.34.

Consider `CCN(CC)[C@@H](CNC(=O)CNC(=O)C1CCCC1)c1ccco1`, for which the “% Inhibition” value was determined as 7% and the Z score is -0.86.

Take `O=S(=O)(c1ccccc1)N1CCN(Cc2noc(-c3ccco3)n2)CC1`: the “% Inhibition” value is recorded as -2% and the Z score worked out at 0.29.

On to `COc1cccc(OC2CN(c3cccc(C(=O)O)n3)C2)c1`, for which the “% Inhibition” value is given as -14% and the Z score was 1.52.

For `COCc1noc(C[C@H]2CN(C(=O)c3c(C)cc(C)[nH]c3=O)CCO2)n1`, the “% Inhibition” value is on record as 2% and the Z score is reported as -0.34.

As for `Cc1cc(CN(C)c2nc(C(F)(F)F)nc3[nH]cnc23)no1`, the “% Inhibition” value is listed as -10% and the Z score worked out at 1.28.

Consider `c1ccc2c(Oc3ccc4c(c3)CCC4)ncnc2c1`, for which the “% Inhibition” value worked out at 35% and the Z score is on record as -3.96.

Take `O=S(=O)(c1ccccc1F)N1CCC[C@](CC2CC2)(c2noc(C3CCOCC3)n2)C1`: the “% Inhibition” value is -6% and the Z score was found to be 1.04.

For `COc1cccc(CC(=O)N2CCC(F)(C(=O)N3CCOCC3)CC2)c1`, the “% Inhibition” value was -14% and the Z score is 1.88.

Regarding `CS(=O)(=O)N(CC(=O)NC1CC1)C1CCCCC1`, the “% Inhibition” value is -8% and the Z score came to 0.98.

`COCN1C(=O)CCc2cc(NCc3cncs3)ccc21`: the “% Inhibition” value is given as 2% and the Z score is -0.4.

As for `COc1ccc(C[C@@]2(CCC(=O)N3CCN(c4cccc(C)c4C)CC3)CCC(=O)N2)c(F)c1`, the “% Inhibition” value is given as -4% and the Z score is reported as 0.59.
